The values below come from ChEMBL document CHEMBL1201862, “PubChem BioAssay data set” (2004).

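A five-concentration, 48-hour dose response in 96-well plates underlies each endpoint, interpolated linearly between surrounding concentrations. At the GI50, growth is halved.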 Calls of active or inactive are those of the source. Cut-off read from the data, not from the text of the source: active = GI50 up to about 1.1 µM and inactive = higher. Square brackets hold non-standard residues; d marks the D form. Peptide text beside a SMILES is read from it. * marks the point of attachment. X23 = COC1=CC(=O)N(C(=O)[C@@H](O*)C(C)C)[C@H]1Cc1ccccc1; Bn2Val = CC(C)[C@@H](C(=O)*)N(Cc1ccccc1)Cc1ccccc1; Phe(4-NO2) = N[CH](Cc1ccc([N+](=O)[O-])cc1)C(=O)O; NH(3,4-diMeO-benzyl) = COc1ccc(CN*)cc1OC; Phe(4-Cl) = N[CH](Cc1ccc(Cl)cc1)C(=O)O; 2Nal = N[CH](Cc1ccc2ccccc2c1)C(=O)O; X24 = Clc1c(Cl)c(Cl)c(O*)c(Cl)c1Cl; NH(4-Cl-benzyl) = Clc1ccc(CN*)cc1; NHPiperonyl = c1cc2c(cc1CN*)OCO2; NH(4-F-benzyl) = Fc1ccc(CN*)cc1; 3Pal = N[CH](Cc1cccnc1)C(=O)O; AllylGly = C=CC[CH](N)C(=O)O; NMeV = CN[C@H](C(=O)O)C(C)C; dNMeA = CN[C@H](C)C(=O)O; Boc = CC(C)(C)OC(=O)*; OBn = c1ccc(CO*)cc1; Bn = c1ccc(C*)cc1; OtBu = CC(C)(C)O*

In the assay the test system is NCI-H322M. Put plainly: NCI-60 cell line screen, 48 h.
Take `Cc1cc(Cc2cc(Cc3cc(C)cc(C(C)(C)C)c3O)c(C)cc2C)c(O)c(C(C)(C)C)c1`: the GI50 is inactive: 15.5 µM. To `CCOC(=O)c1csc(NC(=O)CN2CCCCC2)n1` belongs inactive: > 100 µM.

Regarding `O=C(/C=C/c1ccc(O)c(O)c1)NCCc1ccc(-c2ccccc2)cc1`, the GI50 is inactive: 14 µM. To `CC(C)(C)OC(=O)C(C#N)C(=O)c1ccc(C(=O)O)[nH]1` (centres undefined) belongs inactive: 43 µM; to `CCOC(=O)C(=O)CC(=O)C(Br)C(Br)c1ccc(Cl)cc1` (centres undefined), inactive: > 100 µM. Turning to `CCNC(C)Cc1ccccc1` (centres undefined), the GI50 is inactive: > 100 µM. To `COC(=O)C1=C(C(=O)OC)C23CC1C1C(C(=O)OC)=C(C(=O)OC)C12C1C=CC3C2C(=O)OC(=O)C21` (centres undefined) belongs inactive: 34.4 µM; to `COC(=O)C1=C(OC(=O)/C(=C/c2ccc(Cl)cc2)c2ccc(Cl)cc2)C(C(=O)OC)[C@@]2(O)[C@@H](C(=O)OC)[C@H](C)C[C@@H]1[C@@H]2C(=O)OC` (some centres undefined), inactive: 42.3 µM. To `C#CC(C)(C)OCCCCOc1cc(O)c2c(=O)c3ccccc3n(C)c2c1` belongs inactive: > 100 µM; to `O=S(=O)(Nc1ccccc1)c1ccc(-c2c3nc(c(-c4ccc(S(=O)(=O)Nc5ccccc5)cc4)c4ccc([nH]4)c(-c4ccc(S(=O)(=O)Nc5ccccc5)cc4)c4nc(c(-c5ccc(S(=O)(=O)Nc6ccccc6)cc5)c5ccc2[nH]5)C=C4)C=C3)cc1`, inactive: 28.6 µM. As to `COc1ccccc1C(=O)NCC1CCCN2CCCCC12` (centres undefined), the GI50 is inactive: > 100 µM.

As to `COc1cc(NC(C)=O)c2[nH]c3c(C)cc(NC(C)=O)c(C)c3c2c1`, the GI50 was inactive: > 100 µM. With `CCOC(=O)/C(SC#N)=C(/N)N1CCCC1`, the GI50 was inactive: > 100 µM.

As to `O=[N+]([O-])c1ccc2nc(/C(=N\Nc3ccccc3)C(O)c3ccc4c(c3)OCO4)c(O)nc2c1` (centres undefined), the GI50 is inactive: 72.8 µM. To `CC(=O)NC1CC2Oc3ccc(C)cc3C(C)(O2)C1O` (centres undefined) belongs inactive: > 100 µM; to `O=C1c2ccccc2C(=O)N1Cc1ccccc1-c1c2nc(c(-c3ccccc3CN3C(=O)c4ccccc4C3=O)c3ccc([nH]3)c(-c3ccccc3CN3C(=O)c4ccccc4C3=O)c3nc(c(-c4ccccc4CN4C(=O)c5ccccc5C4=O)c4ccc1[nH]4)C=C3)C=C2`, inactive: > 100 µM; to `Clc1ccccc1C(n1ncc2ccccc21)n1ncc2ccccc21`, inactive: 55.1 µM. To `O=C1c2ccccc2C(=O)C1(O)c1c[nH]c2ccccc12` belongs inactive: > 100 µM. To `O=C1CCC2=C(CCC2)N1CCc1ccc2c(c1)OCO2` belongs inactive: 51.8 µM; to `CN1CCN(CN2C(=O)C3C4C=CC(C3C2=O)C2C(=O)N(CN3CCN(C)CC3)C(=O)C42)CC1` (centres undefined), inactive: > 100 µM; to `COc1ccc(-n2cnnc2-c2nsc3ccccc23)cc1`, inactive: > 100 µM. Consider `CC(C)(C)OC(=O)C1C(=O)NC(=O)CC1CC(OCc1ccccc1)C(COCc1ccccc1)OCc1ccccc1` (centres undefined), for which the GI50 is inactive: 43.9 µM. As for `CC(=O)Nc1ccc(/C=c2\sc3nnc(/C=C/c4ccccc4)n3c2=O)cc1`, the GI50 was inactive: > 50 µM. `O=C1C(=C2CCCC2)CCC1CN1CCCCC1` (centres undefined): the GI50 was inactive: > 100 µM.

Turning to `CN(N=O)c1nc2c(C(N)=O)ncn2s1`, the GI50 was inactive: > 100 µM. Turning to `O=C(/C=C/c1ccc(OCc2ccccc2)cc1)NCc1ccc(C(=O)NCc2ccccc2)cc1`, the GI50 was inactive: > 100 µM. To `CCCc1c2c3ccccc3nc-2nc2ccccn12` belongs inactive: 33.9 µM; to `O=C(c1ccc(Cl)cc1Cl)N(/N=C/C=C/c1ccccc1)c1nnc(-c2ccccc2)c(-c2ccccc2)n1`, inactive: > 100 µM. With `NC(=O)C12CC3CC(CC(F)(C3)C1)C2`, the GI50 is inactive: > 100 µM. On to `CCOC(=O)CC/C(C)=N\n1c(Cc2ccc(Cl)cc2)n[nH]c1=O`, for which the GI50 is inactive: > 100 µM. In the case of `O=C1OC(=O)C2C1C(c1ccccc1[N+](=O)[O-])C=C(c1ccco1)N2c1ccncc1` (centres undefined), the GI50 is inactive: 15.8 µM. As for `Cc1cc(=O)nc(S(=O)(=O)NC(=O)Nc2cccc(Cl)c2)[nH]1`, the GI50 is inactive: > 100 µM. For `Cn1c2ncccc2n2c(=O)cc(O)cc12`, the GI50 is inactive: 67.1 µM. To `Cc1cccc(C(C)(C)C)c1NC(=O)CCl` belongs inactive: > 100 µM. To `N#C/C(=C1\OC(=O)C(c2ccc(Br)cc2)=C1O)c1ccc(Br)cc1` belongs inactive: 16.4 µM. To `NCC(O)CNC(=O)c1ccc(-c2ccc(-c3ccc(C(=O)NCC(O)CN)cc3)o2)cc1` (centres undefined) belongs inactive: 20.8 µM; to `O=C(O)C1(Cc2ccc3c(c2)CCC3)Cc2ccccc2C1`, inactive: 62.7 µM; to `CNC(C)(C)Cc1ccc(Cl)cc1`, inactive: > 100 µM. As for `C[C@]12CC/C(=N\OC(=O)Nc3ccccc3)C=C1CC[C@@H]1C2CC[C@@]2(C)C1CC[C@@H]2OC(=O)Nc1ccccc1` (some centres undefined), the GI50 was inactive: > 100 µM. To `Nc1cc(N)c(/N=N/c2cccc3c(S(=O)(=O)O)cccc23)cc1/N=N/c1cc([N+](=O)[O-])ccc1O` belongs inactive: 34.6 µM; to `CC(NNC(=O)c1cc[n+]([BH2-]C#N)cc1)c1ccccc1F` (centres undefined), inactive: 49.9 µM; to `O=[N+]([O-])C1C2C=CC(C2)[C@H]1c1ccco1` (some centres undefined), inactive: > 100 µM. To `CN(c1n[n+]2c(-c3ccccc3)csc2s1)c1n[n+]2c(-c3ccccc3)csc2s1` belongs inactive: > 100 µM; to `O=S(=O)(N/C(=N\O)Nc1ccc(Cl)cc1)c1ccccc1`, inactive: 16.1 µM; to `COc1cc2cc(C(=O)N3CC(CCl)c4c3cc(NC(=O)OCc3ccc([N+](=O)[O-])cc3)c3ccccc43)[nH]c2c(OC)c1OC` (centres undefined), inactive: > 45.6 µM. Consider `COc1ccc2nc(-c3ccc(N)cc3)sc2c1`, for which the GI50 was inactive: 39.4 µM. To `CC(=O)NC(CS)C(=O)NC(CO)C(=O)NC(CO)C(=O)NC(Cc1c[nH]c2ccccc12)C(=O)N1CCCC1C(=O)NC(CO)C(=O)NC(Cc1c[nH]c2ccccc12)C(=O)NC(Cc1c[nH]cn1)C(=O)NC(CO)C(=O)NC(Cc1c[nH]c2ccccc12)C(=O)NCC(=O)NCC(=O)NC(CC(=O)O)C(=O)NC(CCC(N)=O)C(=O)NC(CCCCN)C(=O)NC(Cc1ccccc1)C(=O)NC(CCCNC(=N)N)C(=O)NC(CCCCN)C(N)=O` (centres undefined) (Ac-CSSWPSWHSWGGDQKFRK-NH2; configuration not given here) belongs inactive: > 25 µM; to `CC(=O)NC(CCC(=O)OC(C)(C)C)C(=O)NC(CCC(=O)OC(C)(C)C)C(=O)NC(Cc1ccc([N+](=O)[O-])cc1)C(=O)NC(CCCCNC(=O)OC(C)(C)C)C(=O)NC(CCCCNC(=O)OC(C)(C)C)C(=O)NCC(=O)O` (centres undefined) (Ac-E(OtBu)E(OtBu)[Phe(4-NO2)]K(Boc)K(Boc)G-OH; configuration not given here), inactive: > 100 µM; to `CC(=O)NC(Cc1ccc2ccccc2c1)C(=O)NC(Cc1ccc(Cl)cc1)C(=O)NC(Cc1cccnc1)C(=O)NC(CO)C(=O)NC(Cc1ccc(O)cc1)C(=O)NC(CCCN=C(N)N)C(=O)NC(CC(C)C)C(=O)NC(CCCN=C(N)N)C(=O)N1CCCC1C(=O)NC(C)C(N)=O` (centres undefined) (Ac-[2Nal][Phe(4-Cl)][3Pal]SYRLRPA-NH2; configuration not given here), inactive: > 100 µM. Consider `CC(C)[C@H](NC(=O)[C@H](C(C)C)N(Cc1ccccc1)Cc1ccccc1)C(=O)N(C)[C@H](C(=O)N1CCC[C@H]1C(=O)N(C)[C@H](C)C(=O)NCc1ccc2c(c1)OCO2)C(C)C` (Bn2Val-V[NMeV]P[dNMeA]-NHPiperonyl), for which the GI50 was inactive: 25.6 µM. In the case of `COC1=CC(=O)N(C(=O)[C@@H](OC(=O)[C@@H](C)N(C)C(=O)[C@@H]2CCCN2C(=O)[C@H](C(C)C)N(C)C(=O)[C@@H](NC(=O)[C@H](C(C)C)N(Cc2ccccc2)Cc2ccccc2)C(C)C)C(C)C)[C@H]1Cc1ccccc1` (Bn2Val-V[NMeV]P[dNMeA]-X23), the GI50 was inactive: > 100 µM. Consider `COc1ccc(CNC(=O)[C@@H](C)N(C)C(=O)[C@@H]2CCCN2C(=O)[C@H](C(C)C)N(C)C(=O)[C@@H](NC(=O)[C@H](C(C)C)N(Cc2ccccc2)Cc2ccccc2)C(C)C)cc1OC` (Bn2Val-V[NMeV]P[dNMeA]-{NH(3,4-diMeO-benzyl)}), for which the GI50 is inactive: 13.2 µM. Take `CC(C)[C@H](NC(=O)[C@H](C(C)C)N(Cc1ccccc1)Cc1ccccc1)C(=O)N(C)[C@H](C(=O)N1CCC[C@H]1C(=O)N(C)[C@H](C)C(=O)NCc1ccc(Cl)cc1)C(C)C` (Bn2Val-V[NMeV]P[dNMeA]-{NH(4-Cl-benzyl)}): the GI50 is inactive: 4.17 µM. To `CC(C)[C@H](NC(=O)[C@H](C(C)C)N(Cc1ccccc1)Cc1ccccc1)C(=O)N(C)[C@H](C(=O)N1CCC[C@H]1C(=O)N(C)[C@H](C)C(=O)NCc1ccc(F)cc1)C(C)C` (Bn2Val-V[NMeV]P[dNMeA]-{NH(4-F-benzyl)}) belongs inactive: 4.63 µM.

For the compound `CC(C)(C)OC(=O)CC(NC(=O)OC(C)(C)C)C(=O)NC(Cc1ccccc1)C(N)=O` (centres undefined) (Boc-Asp(OtBu)-Phe-NH2; configuration not given here), the GI50 was inactive: > 100 µM. To `C=CCC(NC(=O)C(CC(=O)OC(C)(C)C)NC(=O)OC(C)(C)C)C(=O)OC` (centres undefined) (Boc-Asp(OtBu)-[AllylGly]-OMe; configuration not given here) belongs inactive: 97.3 µM; to `COC(=O)C(Cc1ccc([N+](=O)[O-])cc1)NC(=O)C(CC(=O)OC(C)(C)C)NC(=O)OC(C)(C)C` (centres undefined) (Boc-Asp(OtBu)-[Phe(4-NO2)]-OMe; configuration not given here), inactive: > 100 µM; to `COC(=O)C(Cc1ccccc1)NC(=O)C(CS)NC(=O)OC(C)(C)C` (stereo not drawn) (Boc-Cys-Phe-OMe; configuration not given here), inactive: > 100 µM. For the compound `CC(C)CC(NC(=O)C(CCC(=O)OCc1ccccc1)NC(=O)OC(C)(C)C)C(=O)NC(COCc1ccccc1)C(=O)NC(Cc1ccccc1)C(=O)Oc1c(Cl)c(Cl)c(Cl)c(Cl)c1Cl` (centres undefined) (Boc-E(OBn)LS(Bn)F-X24; configuration not given here), the GI50 was inactive: 34.2 µM.
